Experimental data published in the supplement of paper PMC9446081.
In all, about 39,000 compounds went through this assay and about 220 (0.56%) showed activity. Some of the results follow.

These compounds were tested on Escherichia coli K-12 BW25113 (assay: relative growth (OD600 normalised to plate interquartile mean) (fraction); higher = less growth inhibition, active = 0.2 or less). Conditions: 50 µM; LB; incubation time: overnight (16-24 h).
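Further: static incubation at 37 °C against the wild-type strain, values averaged over two biological replicates.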

Row | Structure (SMILES) | relative growth
1 | C[C@@H]1CN([C@H](C)CO)C(=O)CCCn2cc(nn2)CO[C@@H]1CN(C)Cc1ccc(C(=O)Nc2ccccc2N)cc1 | inactive: 1
2 | C[C@H]1CN([C@@H](C)CO)C(=O)c2cc(C#CC3CCCC3)cnc2O[C@@H]1CN(C)C(=O)Cc1ccccn1 | inactive: 0.992
3 | Cc1ccc(S(=O)(=O)Nc2ccc3c(c2)CC(=O)N([C@@H](C)CO)C[C@@H](C)[C@H](CN(C)CC2CC2)O3)cc1 | inactive: 1.02
4 | O=C(C[C@@H]1CC[C@@H]2[C@H](COC[C@@H](O)CN2C(=O)c2ccc(F)cc2)O1)NCCCN1CCOCC1 | inactive: 1.03
5 | C[C@H](CO)N1C[C@H](C)[C@@H](CN(C)C(=O)NC2CCCCC2)Oc2ccc(NS(C)(=O)=O)cc2CC1=O | inactive: 1.03
6 | C[C@@H]1CN([C@@H](C)CO)C(=O)CCCn2cc(nn2)CO[C@H]1CN(C)S(=O)(=O)c1ccc2ccccc2c1 | inactive: 1.01
7 | C[C@H]1CN([C@@H](C)CO)C(=O)Cc2cc(NS(=O)(=O)c3ccc(F)cc3)ccc2O[C@H]1CN(C)S(=O)(=O)c1ccc(F)cc1 | inactive: 0.986
8 | CN1C(=O)CC(C)(c2ccccc2)C1=O (stereo unspecified) | inactive: 1.1
9 | C[C@@H]1CN([C@@H](C)CO)C(=O)c2cc(C#CC3(O)CCCC3)cnc2O[C@@H]1CN(C)C(=O)Nc1ccc2c(c1)OCO2 | inactive: 1.01
10 | COc1ccc(S(=O)(=O)N(C)C[C@H]2Oc3ccc(NS(C)(=O)=O)cc3C(=O)N([C@H](C)CO)C[C@@H]2C)cc1 | inactive: 0.999
11 | O=C(c1ccccc1O)N1CCOCC1 | inactive: 1
12 | NNC(=O)c1ccc2c(=O)[nH][nH]c(=O)c2c1 | inactive: 0.99
13 | C[C@@H]1CN([C@H](C)CO)C(=O)c2cccc(NC(=O)c3nc4ccccc4s3)c2O[C@@H]1CN(C)S(=O)(=O)c1cn(C)cn1 | inactive: 0.994
14 | C[C@H]1CN([C@@H](C)CO)C(=O)c2cccc(NS(=O)(=O)c3cn(C)cn3)c2O[C@@H]1CN(C)CC1CCCCC1 | inactive: 1
15 | O=c1[nH]c(=O)n(Cc2ccccc2)c2nc[nH]c12 | inactive: 0.984
16 | CN(C)C1C(O)=C(C(N)=O)C(=O)C2(O)C(O)=C3C(=O)c4c(O)ccc(Cl)c4C(C)(O)C3CC12.Cl (stereo unspecified) | active: 0.0595
17 | Cc1ccc2c(c1)c1nc3ccccc3nc1n2Cc1ccccc1 | inactive: 1.01
18 | C[C@@H]1CN([C@@H](C)CO)C(=O)c2cc(NS(=O)(=O)c3cccs3)ccc2O[C@H]1CN(C)S(=O)(=O)c1cn(C)cn1 | inactive: 1
19 | COc1cccc(c1)CN1CC[C@]2(CC1)CN([C@H](CO)c1c2c2ccc(cc2n1C)OC)C(=O)Nc1ccc(cc1)F | inactive: 0.997
20 | C[C@@H]1CN([C@@H](C)CO)C(=O)c2cc(NS(=O)(=O)c3cn(C)cn3)ccc2O[C@H]1CN(C)S(=O)(=O)c1ccc(F)cc1 | inactive: 0.98
21 | Nc1nnc(N[C@H]2CCCCNC2=O)[nH]1 | inactive: 0.989

Row | Structure (SMILES) | relative growth
22 | C[C@@H]1CN([C@H](C)CO)C(=O)c2cc(NS(=O)(=O)c3ccc(Cl)cc3)ccc2O[C@@H](C)CCCCO[C@@H]1CN(C)Cc1ccc(C(=O)O)cc1 | inactive: 0.978
23 | CC(=O)OC1CC2C(C)(C)C=CCC2(C)C2CCC3(C)C(c4ccoc4)OC(=O)C4OC43C12C (stereo unspecified) | inactive: 1.16
24 | C[C@@H]1CCCCO[C@H](CN(C)C(=O)c2ccccc2)[C@H](C)CN([C@@H](C)CO)C(=O)c2cc(NC(=O)Nc3ccccc3)ccc2O1 | inactive: 0.99
25 | COCC(=O)N1C[C@@H](C)[C@@H](OC)CN(C)C(=O)c2cc(NC(=O)Nc3ccccc3)ccc2OC[C@H]1C | inactive: 1.01
26 | COCC(=O)Nc1ccc2c(c1)C(=O)N(C)[C@H]1CC[C@H](CC(=O)N3CCc4ccccc4C3)O[C@H]1CO2 | inactive: 0.981
27 | C[C@H](CO)N1C[C@H](C)[C@H](CN(C)Cc2ccc(Oc3ccccc3)cc2)Oc2c(NC(=O)Nc3ccccc3)cccc2C1=O | inactive: 1.05
28 | CN1C(=O)c2cc(NS(C)(=O)=O)ccc2OC[C@@H]2O[C@H](CC(=O)N3CCOCC3)CC[C@H]21 | inactive: 0.891
29 | CC(C)N1CC[C@@H](CN(C)Cc2ccc(C(=O)O)cc2)Oc2cc(-c3ccc(C(F)(F)F)cc3)ccc2S1(=O)=O | inactive: 0.936
30 | C[C@H]1CN([C@@H](C)CO)C(=O)c2cc(NC(=O)CCCCCC(=O)Nc3ccccc3N)ccc2O[C@@H]1CN(C)C(=O)Nc1ccccc1 | inactive: 1
31 | COc1ccc(NC(=O)N(C)C[C@H]2OCCCC[C@H](C)Oc3ccc(NC(=O)Nc4cccc5ccccc45)cc3C(=O)N([C@H](C)CO)C[C@@H]2C)cc1 | inactive: 0.991
32 | C[C@@H]1CN([C@H](C)CO)C(=O)c2cc(NC(=O)Nc3ccccc3)ccc2O[C@@H]1CN(C)Cc1ccc(Cl)c(Cl)c1 | inactive: 1.02
33 | C[C@@H]1CN([C@H](C)CO)C(=O)c2cccc(NC(=O)c3ccc(-c4nccs4)cc3)c2O[C@@H]1CN(C)S(=O)(=O)c1cn(C)cn1 | inactive: 1.03
34 | C[C@H]1CN([C@@H](C)CO)C(=O)c2cc(NC(=O)CCCN(C)C)ccc2O[C@@H]1CN(C)S(=O)(=O)c1cn(C)cn1 | inactive: 0.99
35 | O=[N+]([O-])c1cc(N(CCO)CCO)ccc1NCCO | inactive: 1.06
36 | C[C@@H]1CCCCO[C@@H](CN(C)S(=O)(=O)c2ccc(Cl)cc2)[C@@H](C)CN([C@@H](C)CO)C(=O)c2cc(NC(=O)Nc3ccccc3)ccc2O1 | inactive: 1.01
37 | CC(=O)N1CCN(C)CC1 | inactive: 1.01
38 | C[C@@H]1CN([C@@H](C)CO)C(=O)c2cc(NC(=O)Cn3cnnn3)ccc2O[C@@H]1CN(C)Cc1ccc(C(=O)Nc2ccccc2N)cc1 | inactive: 1.04
39 | C[C@H]1CN([C@@H](C)CO)C(=O)CCCn2cc(nn2)CO[C@@H]1CN(C)C(=O)Nc1cccc(Oc2ccccn2)c1 | inactive: 1.02
40 | C[C@H](CO)N1C[C@H](C)[C@H](CN(C)C(=O)Cc2ccccc2)OCCCC[C@H](C)Oc2ccc(NS(=O)(=O)c3ccc(F)cc3)cc2C1=O | inactive: 0.977
41 | C[C@@H]1CCCCO[C@@H](CN(C)Cc2ccc3c(c2)OCO3)[C@H](C)CN([C@H](C)CO)C(=O)c2cc(NC(=O)c3ccccc3)ccc2O1 | inactive: 0.977
